From ChEMBL document CHEMBL4888484, “Replenishing the malaria drug discovery pipeline: Screening and hit evaluation of the MMV Hit Generation Library 1 (HGL1) against asexual blood stage Plasmodium falciparum ,using a nano luciferase reporter read-out” (2022) come the findings set out here.

In all, about 150,000 compounds went through this assay and about 540 (0.36%) showed an effect of 50% or more. Some of the results follow.

The test system of this assay is Plasmodium falciparum. Kind of assay: Primary screen in NF54 nanoGlo assay, in single point, at 2uM, 72h; a lower Z score goes with more inhibition. The conditions noted are these: timepoint 72 hour. It counts as functional, Erythrocyte.
What is called % Inhibition is the change of the read-out against control, counted positive when it falls. In the case of `CO[C@H]1C[C@@H](O)C12CCN(c1nc(C)cc(C3CCC3)n1)CC2`, the “% Inhibition” value stood at 3% and the Z score is -0.62.

Turning to `Cc1nn(-c2ccc3nncn3n2)c2c1[C@@H](c1ccc(C#N)cc1)CC(O)=N2`, the “% Inhibition” value is listed as -3% and the Z score stood at 0.5.

Consider `COc1cc(C)c([C@H](C)Nc2nccc3nccnc23)cc1OC`, for which the “% Inhibition” value is listed as 23% and the Z score is on record as -2.95.

With `Cn1ccnc1N1CCN(c2ncc(F)cn2)CC1`, the “% Inhibition” value is -10% and the Z score came to 1.84.

Take `CCOC(=O)N1CCN(C2=NC(=O)[C@@H](C#N)C3(CCCC3)N2)CC1`: the “% Inhibition” value is -9% and the Z score is 0.92.

`Cc1nccn1CN1C(=O)c2ccccc2C1=O`: the “% Inhibition” value is recorded as -2% and the Z score was determined as 0.29.

Take `NC(=O)c1ccc(-c2nc(-c3ccc(CO)o3)n(C3CCCCC3)n2)cc1`: the “% Inhibition” value is on record as -5% and the Z score stood at 0.9.

For the molecule `CCCN1CC(=O)N(c2c(C)cc(C)cc2C)C1=O`, the “% Inhibition” value is given as -8% and the Z score is on record as 0.77.

As for `c1ccc(N2CCN(C3CCN(C[C@H]4CCCCO4)CC3)CC2)nc1`, the “% Inhibition” value turned out to be 2% and the Z score is -0.4.

With `CCCN(CC(=O)N1CC(C)OC(C)C1)CC(F)(F)F` (stereo unspecified), the “% Inhibition” value is -4% and the Z score worked out at 0.71.

Take `Cc1scc(C(=O)N2CCN(CC(=O)Nc3nncs3)CC2)c1C`: the “% Inhibition” value was -2% and the Z score is given as 0.35.

With `CC[C@H]1CCCCCN1C(=O)c1ccnc(OC2CCC2)c1`, the “% Inhibition” value is -5% and the Z score was 0.5.

As for `Cc1ccn(CC(=O)Nc2c(-c3cnn(C)c3)nc3n2CCCC3)n1`, the “% Inhibition” value worked out at 20% and the Z score was -2.52.

`C1CCc2nnc(-c3[nH]nc4c3CCCC4)n2CC1`: the “% Inhibition” value amounted to 2% and the Z score was -0.22.

Take `COc1cccc(OC)c1-c1ccc2c(=O)[nH]ccc2c1`: the “% Inhibition” value is on record as -7% and the Z score was 1.27.

Regarding `CCOC(=O)c1nc2ccccc2nc1N1CCCN(S(=O)(=O)c2ccc(CC)cc2)CC1`, the “% Inhibition” value is -9% and the Z score worked out at 0.9.

Turning to `CN(C)[C@H]1CCN(C(=O)c2cnn(-c3nccc(-c4cc5ccccc5o4)n3)c2C2CC2)C1`, the “% Inhibition” value is reported as -3% and the Z score is reported as 0.47.

Consider `CCC(CC)C(=O)NCc1cn(CCOc2ccccc2)nn1`, for which the “% Inhibition” value is given as -10% and the Z score was determined as 1.63.

For `CN(Cc1ccc(F)cc1)c1ccc(OCC(=O)N2CCc3nc[nH]c3[C@H]2c2ccccn2)nn1`, the “% Inhibition” value is on record as -10% and the Z score is 1.98.

As to `Cc1cc2c(cc3n2C[C@@](C)(C(=O)NC2CCCCC2)N(Cc2ccccc2Cl)C3=O)o1`, the “% Inhibition” value is -5% and the Z score was found to be 0.88.

Take `Cc1ccc(N(C)C[C@@H](O)Cc2ccccc2)c(C)c1`: the “% Inhibition” value is on record as -1% and the Z score came out at 0.27.

As to `CC(C)c1ccc(S(=O)(=O)N(CCN2CCCCC2)CC(=O)N2CCNCC2)cc1`, the “% Inhibition” value turned out to be 12% and the Z score is on record as -1.45.

Take `CN(Cc1ccsc1)S(=O)(=O)c1cccc2cccnc12`: the “% Inhibition” value stood at 6% and the Z score is -0.82.

For `CCN(CC)c1onc(-c2ccccc2)c1CN(C[C@H]1CCCO1)C(=O)COC`, the “% Inhibition” value was 7% and the Z score is listed as -0.7.

With `Cc1cc(C(=O)N2CCC3(CCC(=O)N(CCc4c[nH]cn4)C3)CC2)c(C)o1`, the “% Inhibition” value was -10% and the Z score worked out at 1.47.

Take `CCCn1nc(C(=O)N(CCc2ccccc2)Cc2ccccc2)ccc1=O`: the “% Inhibition” value was -9% and the Z score was 1.15.

`NC(=O)C1CCN(c2cc(C3CC(O)C3)ncn2)CC1` (stereo unspecified): the “% Inhibition” value is 0% and the Z score amounted to 0.02.

On to `C[C@@H](CN1CCN(C)CC1)OC(=O)c1cccc(F)c1`, for which the “% Inhibition” value is reported as -7% and the Z score was determined as 0.78.

Regarding `COc1cccc(-c2noc([C@@H]3CCCCN3C(=O)c3ccc(C(F)(F)F)cc3)n2)c1`, the “% Inhibition” value was 1% and the Z score is listed as -0.18.

Regarding `CCc1nnc2c(S(=O)(=O)N(Cc3ccccc3)c3cccc(Cl)c3)cccn12`, the “% Inhibition” value was 1% and the Z score is -0.06.

As to `Nc1ccc2c(c1)NC(=O)[C@H](c1ccccc1)O2`, the “% Inhibition” value was -1% and the Z score is on record as 0.15.

Consider `CCc1noc(CN(CC)Cc2c[nH]nc2-c2ccc(F)cc2)n1`, for which the “% Inhibition” value is -4% and the Z score is 0.41.

For `CCOC(=O)N1CCC(NC(=O)c2cc(C(=O)Nc3ccc(F)cc3F)ccc2CO)CC1`, the “% Inhibition” value is reported as -2% and the Z score is 0.34.

As to `CCN(CCn1cccn1)Cc1nc(-c2ccc(C)s2)oc1C`, the “% Inhibition” value was -5% and the Z score is 0.4.

In the case of `CC1CN(C)CCC1N(C)C(=O)C1CC(=O)N(Cc2cccc(C(F)(F)F)c2)C1` (stereo unspecified), the “% Inhibition” value is on record as -4% and the Z score was 0.55.

As to `COCCCN(CCOC)C(=O)Nc1ccc(C)c(C)c1`, the “% Inhibition” value is on record as -16% and the Z score came out at 1.56.

For the molecule `COCC(=O)N(C)[C@@H](CO)c1cc(OC)ccc1Br`, the “% Inhibition” value came out at 16% and the Z score is -2.

Take `O=C1CN(C(=O)Cc2ccccc2)CC(=O)N1`: the “% Inhibition” value is given as 30% and the Z score is -3.34.

Take `CCN(CC(=O)Nc1ccc2c(c1)OCCO2)C(=O)C[C@H](C)c1ccccc1`: the “% Inhibition” value is listed as -2% and the Z score stood at 0.23.

On to `CCCCn1cnc2c(-c3ccccc3)cn(CC(=O)NC(C)C)c2c1=O`, for which the “% Inhibition” value is 2% and the Z score is -0.33.

On to `c1ncn(CCCc2ncnn2-c2ccc3c(c2)CCC3)n1`, for which the “% Inhibition” value is given as -4% and the Z score is 0.56.

For the molecule `Cc1nnc(CNCc2cc(Cl)ccc2OC[C@@H](O)CN2CCCCCC2)[nH]1`, the “% Inhibition” value is recorded as -22% and the Z score is listed as 2.02.

For the molecule `CCc1cnc(CNC2c3ccccc3CCC2n2ccnc2)s1` (stereo unspecified), the “% Inhibition” value is reported as -4% and the Z score came out at 0.83.
